# Measurements reported in PubChem BioAssay AID1468 (National Center for Advancing Translational Sciences (NCATS), 2008).
# Several values for one entry are separate records, joined by “and”; a condition that tells them apart may be missing. Identical values can stand only once. Hit rate of the full screen: of about 280,000 compounds, about 1,100 (0.39%) were called active. The shares of active, inactive and inconclusive entries below differ from those in the screen. The call rests on the fitted dose curve; in most records, active means well fitted inhibition curve with a large enough effect; inconclusive means small, poorly fitted or top-dose-only effect, or effect the other way; inactive means flat fitted curve, though single readings scatter. Potencies of inconclusive entries are doubtful fits and often do not repeat.
# Target: Microtubule-associated protein tau (Homo sapiens) (UniProt P10636)
# UniProt P10636, sequence (P10636 whole entry, looked up): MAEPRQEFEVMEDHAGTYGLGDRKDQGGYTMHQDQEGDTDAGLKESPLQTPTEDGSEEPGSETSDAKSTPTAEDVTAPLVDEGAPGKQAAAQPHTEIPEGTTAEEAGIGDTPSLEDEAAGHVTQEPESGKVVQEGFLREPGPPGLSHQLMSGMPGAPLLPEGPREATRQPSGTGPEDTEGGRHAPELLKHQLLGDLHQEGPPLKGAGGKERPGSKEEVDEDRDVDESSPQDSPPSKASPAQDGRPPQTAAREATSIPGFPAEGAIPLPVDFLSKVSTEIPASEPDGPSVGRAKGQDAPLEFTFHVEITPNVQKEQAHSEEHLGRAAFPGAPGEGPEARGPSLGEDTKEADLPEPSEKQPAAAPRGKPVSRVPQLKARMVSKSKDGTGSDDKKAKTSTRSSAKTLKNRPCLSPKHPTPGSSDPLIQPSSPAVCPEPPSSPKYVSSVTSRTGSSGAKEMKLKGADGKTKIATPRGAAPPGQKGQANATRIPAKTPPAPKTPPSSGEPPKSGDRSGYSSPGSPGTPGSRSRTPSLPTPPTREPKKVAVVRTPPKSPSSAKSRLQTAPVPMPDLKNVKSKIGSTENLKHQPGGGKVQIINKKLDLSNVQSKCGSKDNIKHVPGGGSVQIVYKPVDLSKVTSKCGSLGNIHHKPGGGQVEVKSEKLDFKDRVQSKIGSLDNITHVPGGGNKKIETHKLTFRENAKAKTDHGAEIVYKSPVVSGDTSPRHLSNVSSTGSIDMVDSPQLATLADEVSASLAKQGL
# Assay: qHTS for Inhibitors of Tau Fibril Formation, Fluorescence Polarization; further: nearly all actives have a fitted effect of over 55% in size
# Settings: K18 P301L tau heparin fibrillization, Alexa594 FP, 6 h; series mostly up to 57.7 µM
# Summary of the method: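 Recombinant K18 P301L […], labeled with Alexa 594 at 0.24 uM over 15 uM unlabeled; heparin inducer 20 uM final; 37 C, 6 hr; FP endpoint.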
# Potency means the concentration at half of the fitted maximal effect; tags describe the fitted curve by direction and shape.
row,SMILES,Potency
1,COc1ccc2c(c1)/C(=C/c1cnc[nH]1)C(=O)N2,inactive
2,Cc1ccc2nc(NC(=O)c3cccn(Cc4ccccc4F)c3=O)sc2c1,"inconclusive: 22.4 µM [inhibitor, partial curve]"
3,O=C(Nc1ccc(OC(F)(F)F)cc1)C1CCN(S(=O)(=O)c2cccs2)CC1,"inconclusive: 39.8 µM [inhibitor, single point]"
4,OC12ONC(c3ccccn3)C1N1CCC2CC1 (stereo unspecified),"inconclusive: 8.91 µM [inhibitor, partial curve]"
5,O=C(c1csc2c1CCCCC2)N1CCC2(CC1)OCCO2,inactive
6,O=C1NC(=O)N(c2ccccc2)C(=O)/C1=C\c1ccc([N+](=O)[O-])o1,"inconclusive: 17.8 µM [inhibitor, partial curve]"
7,O=C(c1ccc(C(F)(F)F)cc1)C1CCCN(Cc2ccncc2)C1 (stereo unspecified),"inconclusive: 17.8 µM [inhibitor, partial curve]"
8,O=C1NC(=O)C(=Cc2ccccc2OCCOc2ccc([N+](=O)[O-])cc2)C(=O)N1,"inconclusive: 11.2 µM [inhibitor, partial curve]"
9,COc1ccc(/C=C2/C(=O)N(Cc3ccco3)C(=O)N(C(C)C)C2=O)cc1,"inconclusive: 39.8 µM [inhibitor, single point]"
10,Cc1ccc(NC(=O)Nc2ccc3nc(N4CCN(C)CC4)cc(C)c3c2)cc1F,"inconclusive: 0.891 µM [activator, full curve]"
11,CCc1ccc(-n2nc(C)c3c2NC(=O)CSC3c2ccc(C(=O)OC)cc2)cc1 (stereo unspecified),"inconclusive: 17.8 µM [inhibitor, single point]"
12,NCCc1c[nH]c2ccc(O)cc12,"inconclusive: 39.8 µM [inhibitor, single point]"
13,CC(C)(C)c1ccc(S(=O)(=O)Nc2ccc(O)c(Sc3nc4ccccc4s3)c2)cc1,"inconclusive: 20 µM [inhibitor, partial curve]"
14,O=C(c1cc2nc(-c3ccccc3)cc(-c3ccccc3)n2n1)N1CCC2(CC1)OCCO2,"inconclusive: 44.7 µM [inhibitor, single point]"
15,CC(=O)OC[C@H](N)C(=O)c1ccccc1,inactive
16,CC(C)c1cc2c(c(O)c1O)[C@]1(C(=O)O)CCCC(C)(C)C1CC2 (stereo partly specified),"inconclusive: 14.1 µM [inhibitor, partial curve]"
17,COc1cc(OC)cc(C(=O)Nc2ccc(Cl)cc2C(=O)c2ccccc2Cl)c1,"inconclusive: 10 µM [inhibitor, partial curve]"
18,CCCCn1c(NC(=O)c2ccc(Br)o2)c(C(=O)OCC)c2nc3ccccc3nc21,"inconclusive: 39.8 µM [inhibitor, single point]"
19,O=C1NC(=O)N(Cc2ccccc2Cl)C(=O)/C1=C/N1CCOCC1,"inconclusive: 28.2 µM [inhibitor, partial curve]"
20,O=C1OC(c2cc(I)c(O)c(I)c2)(c2cc(I)c(O)c(I)c2)c2ccccc21,"inconclusive: 22.4 µM [inhibitor, partial curve]"
21,O=[N+]([O-])c1cc(F)c(N2CCCC2)cc1N1CCNCC1,"inconclusive: 44.7 µM [activator, single point]"

row,SMILES,Potency
1,C=C1C(=O)O[C@H]2C[C@@H](C)[C@@H]3C=CC(=O)[C@@]3(C)C[C@H]12,"inconclusive: 14.1 µM [inhibitor, partial curve]"
2,CC(C)[C@]1(O)[C@@H](OC(=O)c2ccc[nH]2)[C@@]2(O)[C@@]3(C)C[C@]4(O)O[C@@]5([C@H](O)[C@@H](C)CC[C@]35O)[C@@]2(O)C41C,"inconclusive: 11.2 µM [inhibitor, partial curve, poor fit]"
3,O=C1NC(=O)N(Cc2ccc(F)cc2)C(=O)/C1=C/c1cccs1,"inconclusive: 28.2 µM [inhibitor, partial curve]"
4,COc1ccc2c(CN3CC=C(c4ccccc4)CC3)cc(=O)oc2c1,inactive
5,Cc1cc(C=C2C(=O)N(C)C(=S)N(C)C2=O)c(C)n1C1CCCC1,"inconclusive: 39.8 µM [inhibitor, single point]"
6,O=C1NS(=O)c2cc([N+](=O)[O-])cc([N+](=O)[O-])c21 (stereo unspecified),"inconclusive: 22.4 µM [inhibitor, partial curve]"
7,CCN1CCN(Cc2ccccc2C)CC1,inactive
8,CCNC(C)Cc1cccc(C(F)(F)F)c1 (stereo unspecified),"inconclusive: 0.126 µM [inhibitor, full curve, poor fit]"
9,[O-]/[N+](=C/c1cccnc1)c1ccc(Br)cc1,"inconclusive: 25.1 µM [inhibitor, partial curve]"
10,COc1ccc(Cn2c(O)c(/C=N/NC(=O)c3ccncc3)c(=O)[nH]c2=O)cc1,inactive
11,Cc1cc(C)cc(NC(=O)CN2C(=O)CN=C(c3ccccc3)c3cc(Cl)ccc32)c1,"inconclusive: 20 µM [inhibitor, single point]"
12,O=C(N/N=C/c1cccnc1)c1ccc(NC(=O)C(c2ccccc2)c2ccccc2)cc1,"inconclusive: 20 µM [inhibitor, partial curve]"
13,Cc1ccc(NC(=O)c2cn(CCC#N)nc2-c2ccc3c(c2)OCCO3)c([N+](=O)[O-])c1,"inconclusive: 25.1 µM [activator, single point]"
14,N#CC(C#N)=Cc1ccc(C=C(C#N)C#N)cc1,"inconclusive: 20 µM [inhibitor, partial curve]"
15,CC(C)C1C(=O)N2CCC[C@H]2[C@]2(O)O[C@](NC(=O)[C@@H]3C=C4c5cccc6[nH]cc(c56)C[C@H]4N(C)C3)(C(C)C)C(=O)N12 (stereo partly specified),"inconclusive: 35.5 µM [inhibitor, single point]"
16,C=CCN=C(SCC(=O)c1ccc(Cl)cc1)c1c(O)n(C)c(=O)n(C)c1=O,"inconclusive: 0.562 µM [inhibitor, partial curve, poor fit]"
17,CCOc1ccc(N2C(=O)NC(=O)/C(=C/c3cnc(SC)nc3)C2=O)cc1,"inconclusive: 39.8 µM [inhibitor, single point]"
18,CCc1ccc(N2C(=O)NC(=O)C(Cc3ccc(OC)cc3OC)C2=O)cc1 (stereo unspecified),"inconclusive: 39.8 µM [inhibitor, single point]"
19,CC/C(=N\Nc1cccc2ccccc12)c1c(O)[nH]c(=O)[nH]c1=O,"inconclusive: 39.8 µM [inhibitor, single point]"
20,COC(=O)C1C2c3ccccc3OC1(C)N=c1s/c(=C/c3cnn(C)c3)c(=O)n12 (stereo unspecified),inactive
21,CN(C(=O)CSc1nc2ccc(NC(=O)COc3ccc(Cl)cc3)cc2s1)c1ccccc1,"inconclusive: 22.4 µM [inhibitor, partial curve, poor fit]"

row,SMILES,Potency
1,Cn1c(=O)c2c(nc(N/N=C/c3c(O)n(C4CCCCC4)c(=S)[nH]c3=O)n2C)n(C)c1=O,"inconclusive: 44.7 µM [inhibitor, single point]"
2,O=C1NC(=O)C(=O)C(=O)N1,active: 2.82 µM
3,O=c1[nH]c(=O)n(Cc2ccccc2)c(O)c1/C=C1\C=Nc2ccccc21,"inconclusive: 31.6 µM [inhibitor, single point]"
4,CN(C)C(=S)SSC(=S)N(C)C,"inconclusive: 15.8 µM [inhibitor, partial curve] and inconclusive: 2.51 µM [inhibitor, full curve]"
5,Cc1ccc(C)c(Cn2c(C(=O)O)c(C=O)c3ccccc32)c1,inactive
6,CCCCC1C(=O)NC(=S)NC1=O,"inconclusive: 35.5 µM [inhibitor, single point]"
7,CC(C)=CCCC1(C)C=Cc2c(O)c3c(c(CC=C(C)C)c2O1)OC12C(=CC4CC1C(C)(C)OC2(C/C=C(/C)C(=O)O)C4O)C3=O (stereo unspecified),"inconclusive: 8.91 µM [inhibitor, partial curve]"
8,O=C1C(=O)c2ccccc2-c2ccccc21,"inconclusive: 1.26 µM [inhibitor, full curve]"
9,CCOCCCn1c(N)c(C(=O)Nc2sc3c(c2C(=O)OC)CCCC3)c2nc3ccccc3nc21,"inconclusive: 39.8 µM [inhibitor, single point]"
10,C=C1C(=O)O[C@@H]2C[C@@H](C)[C@@H]3C=CC(=O)[C@@]3(C)[C@@H](OC(=O)CC(=O)O[C@H]3[C@@H]4C(=C)C(=O)O[C@@H]4C[C@@H](C)[C@@H]4C=CC(=O)[C@]43C)[C@H]12,active: 8.91 µM
11,C=CCNC(=S)Nc1ccc(OC(=O)Nc2ccc(Cl)c(Cl)c2)cc1,active: 15.8 µM
12,CC(C)c1ccc(NC(=O)c2ccc(F)c(S(=O)(=O)N3CCc4ccccc4C3)c2)cc1,"inconclusive: 28.2 µM [inhibitor, partial curve]"
13,CN1C(=O)c2ccccc2Sc2ccc(NC(=O)c3ccc(C(F)(F)F)cc3)cc21,"inconclusive: 22.4 µM [inhibitor, partial curve]"
14,Cc1nn(C(C)(C)C)c(C)c1/C=N/OC(=O)Nc1ccc(Cl)cc1,"inconclusive: 14.1 µM [inhibitor, partial curve]"
15,Cc1ccccc1-c1nn2c(=O)cc(CN3CCN(C(=O)COc4ccccc4Cl)CC3)nc2s1,inactive
16,Cc1ccc(N2C(=O)NC(=O)/C(=C\c3cnc(-c4ccccc4)nc3)C2=O)cc1,"inconclusive: 25.1 µM [inhibitor, partial curve]"
17,O=C(Nc1ccc2nc(-c3cccs3)c(-c3cccs3)nc2c1)NC1CC1,active: 22.4 µM
18,Cc1nc2c(=O)n(C)c(=O)nc-2n(C)n1,"inconclusive: 3.98 µM [inhibitor, partial curve, poor fit]"
19,CN(C)c1ccc(NC(=O)CN2C(=O)CN=C(c3ccccc3)c3cc(Cl)ccc32)cc1,"inconclusive: 28.2 µM [activator, single point]"
